Results published in publication PMC4336329 (PLoS ONE, 2015).
About 14,000 (4.5%) of roughly 310,000 compounds showed an effect of 50% or more. The effect is printed as a negative number. The list shows a part of the results.

The compounds below were run against human ether-à-go-go-related gene (hERG) potassium channel (human, UniProt Q12809) (assay: primary screen, population patch clamp on CHO cells stably expressing hERG).
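Note: peak tail current of the secondary pulse compared with the same well before compound.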

Chain of human ether-à-go-go-related gene (hERG) potassium channel (Q12809 whole entry, looked up): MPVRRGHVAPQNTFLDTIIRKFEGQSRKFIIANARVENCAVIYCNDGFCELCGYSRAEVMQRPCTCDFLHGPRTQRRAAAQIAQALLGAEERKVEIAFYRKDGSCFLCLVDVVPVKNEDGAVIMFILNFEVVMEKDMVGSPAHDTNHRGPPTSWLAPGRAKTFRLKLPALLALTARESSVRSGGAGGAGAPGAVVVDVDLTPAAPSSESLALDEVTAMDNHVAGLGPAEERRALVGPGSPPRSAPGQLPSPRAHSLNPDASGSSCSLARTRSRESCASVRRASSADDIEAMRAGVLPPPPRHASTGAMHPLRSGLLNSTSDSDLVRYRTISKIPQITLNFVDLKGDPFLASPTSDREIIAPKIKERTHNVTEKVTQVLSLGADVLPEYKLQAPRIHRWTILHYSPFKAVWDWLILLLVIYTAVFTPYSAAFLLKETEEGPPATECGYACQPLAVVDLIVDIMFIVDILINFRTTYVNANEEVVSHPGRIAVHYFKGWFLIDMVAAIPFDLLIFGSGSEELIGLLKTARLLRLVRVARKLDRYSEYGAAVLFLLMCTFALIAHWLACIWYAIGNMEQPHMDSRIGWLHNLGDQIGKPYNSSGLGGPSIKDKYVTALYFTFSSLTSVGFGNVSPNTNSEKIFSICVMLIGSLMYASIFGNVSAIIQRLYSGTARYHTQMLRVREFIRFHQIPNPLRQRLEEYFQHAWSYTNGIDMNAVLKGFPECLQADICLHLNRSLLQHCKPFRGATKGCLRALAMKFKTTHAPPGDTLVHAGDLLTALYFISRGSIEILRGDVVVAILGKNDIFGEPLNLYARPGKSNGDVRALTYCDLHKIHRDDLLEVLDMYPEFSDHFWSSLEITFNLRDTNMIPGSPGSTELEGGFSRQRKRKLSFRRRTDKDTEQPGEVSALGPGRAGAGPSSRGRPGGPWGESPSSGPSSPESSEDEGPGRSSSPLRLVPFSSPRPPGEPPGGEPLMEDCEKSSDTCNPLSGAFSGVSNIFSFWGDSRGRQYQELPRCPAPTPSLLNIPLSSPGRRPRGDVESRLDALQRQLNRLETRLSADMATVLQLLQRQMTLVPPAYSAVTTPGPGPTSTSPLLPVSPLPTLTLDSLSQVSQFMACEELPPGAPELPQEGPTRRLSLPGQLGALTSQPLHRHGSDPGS

Compound | hERG current change (%, negative = inhibition) at 10uM
Cc1ccc(N(CC(O)CN(C)C)S(=O)(=O)c2ccccc2)cc1.Cl (stereo not shown) | -68.1%
COc1cccc(/C=N/NC(=O)c2nnn(-c3nonc3N)c2-c2cccs2)c1 | 16.4%
O=C1CCC(=O)N1OCCCOc1ccccc1 | -2.09%
O=C1CN(C(=O)COc2c(Cl)cccc2Cl)c2ccccc2N1 | -29.1%
c1ccc2c(N3CCCCC3)nc(N3CCOCC3)nc2c1 | -33.7%
CC1NC(=O)c2ccccc2-n2c1nc1cc(F)ccc1c2=O (stereo not shown) | 0.017%
CCOC(=O)N1CCN(Cc2ccccn2)CC1.O=C(O)C(=O)O | 0.59%
COc1cccc(C(=O)NNC(=O)Cc2cccs2)c1 | 15.5%
CCN(CC)S(=O)(=O)c1cc(NC(=O)c2ccc(-n3cncn3)c([N+](=O)[O-])c2)ccc1C | 7.21%
CCOC(=O)C1CCCN(C(=O)Cn2nc(CC)n3c(cc4sccc43)c2=O)C1 (stereo not shown) | -28.1%
C[n+]1cc(-c2ccccc2)oc1-c1ccccc1 | 19.1%
COc1ccc(-n2c(C)nn(C)c2=O)c(OC)c1 | 4.47%
CCn1c(SCC(=O)c2ccc3c(c2)OCCO3)nnc1-c1ccco1 | 0.17%
CC(=O)/C=C/c1ccccc1Oc1c(F)c(F)nc(F)c1F | -0.722%
O=C(N/N=C/c1ccc2c(c1)OCO2)C(=O)N1CCCC1 | 10.1%
C=CCn1c(=O)c(C(=O)NCc2ccccc2Cl)c(O)c2ccccc21 | 9.91%
C/C(CC(=O)NCc1ccccc1Cl)=N/NC(=O)c1ccccn1 | 6.76%
Clc1ccc(Nc2c3c(nc4ncnn24)CCC3)cc1 | 8.29%
CCOc1ccc(-c2nc(C#N)c(N3CCCCCC3)o2)cc1 | -0.783%
Cc1nc2cc(C(=O)O)ccc2n1C1CCCCC1 | 7.52%

Compound | hERG current change (%, negative = inhibition) at 10uM
O=C(CC12CC3CC(CC(Br)(C3)C1)C2)OCCN1CCCCC1 | 3.99%
O=C(CSc1ncnc2ccccc12)NCc1ccco1 | 7.75%
COc1ccc(S(=O)(=O)N(CCC(=O)O)Cc2ccccc2)cc1 | 13.7%
COc1ccc(NC(=S)Nc2ccccc2SC)c(OC)c1 | 28.2%
COc1ccc(C(=O)NNC(=S)NC(=O)c2ccco2)cc1 | 15.2%
CCOc1ccc(Cl)cc1S(=O)(=O)NC1CCCC1 | -3.26%
CCS(=O)(=O)c1ccc(-c2cccc(NC(=O)COc3ccccc3)c2)nn1 | 6.57%
Nc1cc(OCC(F)(F)F)cc([N+](=O)[O-])c1 | 15.3%
COc1cc(OC)c(C#N)c(S(=O)(=O)Cc2ccccc2)c1 | -3.9%
Cc1ccc(NC(=O)Nc2cc(C(F)(F)F)c[nH]c2=O)cc1 | 11.4%
Cn1c(C(=O)NCc2cccs2)cc2oc3ccccc3c21 | 5.98%
CCc1noc(C)c1C(=O)N1CCN(S(=O)(=O)c2ccc(C(C)C)cc2)CC1 | -15.8%
CCOc1cc(/C=N/NC(=O)c2cccnc2)ccc1OCC(=O)N(C)C | 19.3%
CCOC(=O)N1CCN(C(=O)c2oc(=O)c3ccccc3c2-c2ccc(C)cc2)CC1 | -31.4%
Cl.O=C(CN1CCN(c2ncccn2)CC1)N(Cc1ccccc1)c1ccc(F)cc1 | -1.72%
CN(C)S(=O)(=O)c1cccc(NC(=O)/C=C/c2ccccc2[N+](=O)[O-])c1 | -5.47%
O=C1C2C3C=CC(C3)C2C(=O)N1c1n[nH]c(-c2ccccc2)n1 (stereo not shown) | 1.32%
COc1ccc(S(=O)(=O)NCC2CCCN(C(=O)c3cccs3)C2)cc1 (stereo not shown) | -14.5%
COc1ccc(N2CCN(C(=O)c3sc4ncn(CC(=O)N5CCCCC5C)c(=O)c4c3C)CC2)cc1 (stereo not shown) | -24.1%
CCCNS(=O)(=O)c1ccc(Oc2ncc(C(F)(F)F)cc2Cl)cc1 | 10.8%

Compound | hERG current change (%, negative = inhibition) at 10uM
O=C(Nc1cccc(-n2cnnn2)c1)c1cccs1 | -5.87%
O=C(NCCCN1CCN(C2CCCCC2)CC1)Nc1ccccc1C(F)(F)F | -32.3%
Cc1c(C(=O)NCc2ccc3c(c2)OCO3)oc2ccc(S(=O)(=O)N3CCCCCC3)cc12 | 0.236%
O=C(COC(=O)c1cc(-c2cccs2)nn1-c1ccccc1)Nc1cccc([N+](=O)[O-])c1 | -2.97%
O=C(NCc1cccs1)C1CCN(c2nc3ccccc3o2)CC1 | -18.8%
COCCCNCCOCCOc1ccc(C)cc1Br | -26.8%
Cc1ccc(C)c(C(C)NC(=O)c2ccccc2Br)c1 (stereo not shown) | 8.87%
Cc1ccc(NC(=O)CSc2ccc(-c3ccccn3)nn2)cc1F | 13%
C=CCn1c(COc2ccccc2OC)nc2ccccc21 | -0.267%
CCOC(=O)CNC(=O)C(CC(C)C)NC(=O)C1CCCCC1 (stereo not shown) | -2.63%
CCOc1ccccc1/C=N/NC(=O)CNC(=O)c1ccc(S(=O)(=O)N2CCOCC2)cc1 | 2.06%
O=C(NCc1ccc2c(c1)OCO2)c1cc2c(s1)CSC2 | 5.75%
O=C(c1ccco1)N1CCN(CC(O)Cn2c3ccccc3c3ccccc32)CC1 (stereo not shown) | -41.9%
COc1ccc(C)cc1N(C(=O)COc1cccc(F)c1)c1nc2ccccc2s1 | -27.2%
COc1ccc(N2CCN(c3nc4c(c(=O)n(C)c(=O)n4C)n3Cc3ccccc3)CC2)cc1 | -35.1%
O=C(c1ccccc1)c1ccccc1C(=O)N1CCCC1 | 1.66%
O=C(O)CCC1OC(=O)C(O)=C1c1ccccc1 (stereo not shown) | 15.6%
Cc1cccc(NC(=O)c2ccc(COc3ccccc3[N+](=O)[O-])o2)n1 | -4.45%
